Among all 45,000 compounds or so, about 200 (0.44%) were called active. Inconclusive results (about 7%) are left out. The call rests on the fitted dose curve; in most records, active means well fitted activation curve with a large enough effect; inconclusive means small, poorly fitted or top-dose-only effect; inactive means no such curve, though single readings can be large or run the other way. This is one part of the list.
Test: qHTS of TDP-43 Inhibitors: NCGC Sytravon Library Screen; further: 0% is about no effect; nearly all actives have a fitted effect of over 55% in size
Conditions: yeast TDP-43 toxicity rescue, BacTiter-Glo growth, 24 h; series mostly up to 46.1 µM; growth rescue (activation): at the top concentration
In short: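 TDP-43-expressing yeast, pregrown in raffinose, seeded at OD600 0.02 in galactose medium with compound for 24 hr at 30 deg C. Growth read by BacTiter-Glo luminescence, so rescue of toxicity appears as activation.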

Row | SMILES | growth rescue (activation)
1 | COc1cccc2c(=S)c(CCC(C)=O)c(C)[nH]c12 | inactive: 9.28%
2 | COC(=O)C1CN(S(=O)(=O)c2ccc(NC(C)=O)cc2)CCS1 (configuration not stated) | inactive: -5.85%
3 | CN1C(=O)c2cccc3c(S(=O)(=O)N4CCCC4C(=O)O)ccc1c23 (configuration not stated) | inactive: -0.234%
4 | O=C(NC(=S)Nc1ccccc1N1CCOCC1)c1ccc(-c2ccccc2F)o1 | inactive: 10.2%
5 | CCOc1ccc(NCc2cccn2-c2nnc(N3CCC(C(=O)NCCOC)CC3)s2)cc1 | inactive: 0.801%
6 | COc1ccc(N(CC(=O)NCCC(C)C)C(=O)c2snc(C(=O)NC3CCCCC3)c2N)c(OC)c1 | inactive: 11.2%
7 | CCOc1ccc(C(=O)NCC(=O)N2CCCC2)cc1 | inactive: -6.46%
8 | COc1ccccc1/C=C/c1nc(C#N)c(NCCc2ccccc2)o1 | inactive: 4.53%
9 | O=C(O)CC(NC(=O)Cc1ccc(Cl)cc1)c1ccco1 (configuration not stated) | inactive: -14.9%
10 | CCCOC(=O)c1ccc(NC(=O)C(CC)CC)cc1 | inactive: 9.01%
11 | CCc1cc2c(SC(C)C(=O)NC3CCCC3)ncnc2s1 (configuration not stated) | inactive: 29.1%
12 | O=C(CCC(=O)Nc1ccccc1Cl)NNC(=O)C1CCCCC1 | inactive: 22.6%
13 | Cc1ccc(CN2CCN(/N=C/c3ccc(C(=O)O)cc3)CC2)c(C)c1 | inactive: 7.4%
14 | CCc1nc2cc3sc(CC)nc3cc2s1 | inactive: 13.5%
15 | CN1C(=O)c2ccccc2N(C)C1c1cccc(O)c1 (configuration not stated) | inactive: 6.28%
16 | Cc1ccc(-c2cc(-c3ccc(F)cc3)c(C#N)c(N)n2)o1 | inactive: -6.47%
17 | CN(C)c1ccc(CNC(=O)C2Cc3c(-c4ccccc4Oc4ccccc4)ccnc3O2)cc1 (configuration not stated) | inactive: 29.2%
18 | COc1ccc(N=C2O/C(=C/c3sc(=S)n(CC4CCCO4)c3O)N=C2C#N)cc1 (configuration not stated) | inactive: -23.3%
19 | O=C(CCCC(=O)N(CC(=O)NC1CCCCC1)c1ccc(F)cc1)Nc1ccccn1 | inactive: 0.889%
20 | CC(C)(C)NC(=O)C(=O)NN=C1CCCCCCCCCCC1 | inactive: 5.91%
21 | O=C1CN(S(=O)(=O)c2ccccc2Cl)CCN1 | inactive: 10.9%
22 | Cc1nc2ccc(S(=O)(=O)N(C)CC(=O)Nc3cccc(C(F)(F)F)c3)cc2s1 | inactive: 14.1%

Row | SMILES | growth rescue (activation)
23 | Cc1ccc(CN2CCNC(=O)C2CC(=O)NC2CCCCCC2)o1 (configuration not stated) | inactive: -4.88%
24 | Cc1ccc(C(=O)/C=C/c2cn(CC(O)CN3CCOCC3)c3ccccc23)cc1 (configuration not stated) | inactive: 21%
25 | CC(=O)N1CCc2cc(Br)cc(S(=O)(=O)N3CCCCC3)c21 | inactive: 11.2%
26 | O=c1cc(CSc2ccccc2)nc(-c2ccccc2)[nH]1 | inactive: 6.97%
27 | O=C(O)COc1ccccc1/C=C1\SC(=O)N(Cc2ccc(F)cc2)C1=O | inactive: 19.3%
28 | COc1ccccc1CNC(=O)[C@@H]1CCCN1S(=O)(=O)c1ccccc1F | inactive: 10.6%
29 | CNc1oc(-c2ccco2)nc1C#N | inactive: 14.8%
30 | CC(=O)Oc1cc2oc(=O)cc(C)c2cc1Cl | inactive: 24.8%
31 | Cc1ccc(S(=O)(=O)NC(=O)C2(C)CCN2C(=O)Cc2ccc(C(C)(C)C)cc2)nc1 (configuration not stated) | inactive: 18.8%
32 | CC1(C)Cc2c(c(N3CCOCC3)nc3sc4c(NCC5CCCO5)nnnc4c23)CS1 (configuration not stated) | inactive: 4.31%
33 | Cc1ccc2c(c1)C1CN(C)CCC1N2C(=O)COc1ccccc1F (configuration not stated) | inactive: 8.04%
34 | COc1ccc(Nc2nc(N3CCN(S(C)(=O)=O)CC3)nc3ccccc23)c(OC)c1 | inactive: 9.85%
35 | Cc1ccc(C(=O)Nc2ccccc2C(=O)N2CCCC(C)C2)cc1 (configuration not stated) | inactive: -2.09%
36 | CCOc1ccc(Cc2nc(C)c(CC(=O)N3CCOCC3)c(=O)[nH]2)cc1 | inactive: 7.78%
37 | CCOCCCNC(=O)C1CCN(S(=O)(=O)c2cc(Br)cc3c2N(C(=O)CC)CC3)CC1 | inactive: -4.97%
38 | COc1ccc(-n2c(N)c(C#N)c3ccc([N+](=O)[O-])cc3c2=O)cc1 | inactive: 5.2%
39 | CN(Cc1ccccc1)C(=O)c1ccc(Nc2nc(CN)cs2)nc1 | inactive: 6.37%
40 | Cc1cccc(-c2c(O)cc(=O)[nH]c2Cl)c1 | inactive: -4.49%
41 | CCC(=O)N1CCc2cc(Br)cc(S(=O)(=O)CCC(=O)N(CC)CC)c21 | inactive: 12.7%
42 | COc1ccc(C(=O)NC2CCN(S(=O)(=O)c3ccccc3)CC2)cc1 | inactive: -4.55%
43 | Cc1cccc2cc(CN(Cc3cccs3)C(=S)NCC3CCCO3)c(=O)[nH]c12 (configuration not stated) | inactive: 21.7%
44 | COc1ccc(NC(=O)c2cccc(N3C(=O)C4C5C=CC(C5)C4C3=O)c2)cc1 (configuration not stated) | inactive: 20.2%

Row | SMILES | growth rescue (activation)
45 | CCc1ccccc1NC(=O)CN1CCN(CC(=O)Nc2cc(C)ccc2OC)CC1 | inactive: -20.1%
46 | O=C(N/N=C/c1cccc([N+](=O)[O-])c1)c1ccc(Br)cc1 | inactive: 4.36%
47 | COc1cc2c(cc1OC)C1Cc3ccc(OC)c(OC)c3CN1CC2 (configuration not stated) | inactive: 23.4%
48 | Cc1cc(=O)[nH]c(SCC(=O)N2CC3(C)CC2CC(C)(C)C3)n1 (configuration not stated) | inactive: -11.4%
49 | CCN(CC)S(=O)(=O)c1ccc(Cl)c(NC(=O)COC(=O)c2cc(-c3ccccc3Cl)nc3ccccc23)c1 | inactive: 5.51%
50 | Cc1cc2c(c(SCC(=O)NCc3ccccc3Cl)n1)C(=O)OC2 | inactive: 7.25%
51 | Cc1cccc(/C(N)=N/OC(=O)Cc2ccccc2)c1 | inactive: 14.4%
52 | O=C(CSc1nc2ncc(Cl)cc2[nH]1)N(Cc1ccccc1)C1CCS(=O)(=O)C1 (configuration not stated) | inactive: 1.22%
53 | CC(=O)N1CCN(C(=O)COC(=O)c2ccc(S(C)(=O)=O)cc2)CC1 | inactive: 15.8%
54 | O=C(O)c1ccccc1-c1ccccc1C(=O)Nc1cccc(Br)c1 | inactive: -0.698%
55 | O=C1NC(=Nc2ccccc2)SC1Cc1cccc(Cl)c1Cl (configuration not stated) | inactive: 3.34%
56 | COc1ccc(/C=N/Nc2nc3ccccc3[nH]2)cc1OC | inactive: 19.4%
57 | COc1ccc(-c2nnc(NC(=O)c3ccco3)s2)cc1 | inactive: 9.16%
58 | CN(C)c1ccc(CN2CCC(C(=O)NC(c3ccc(Cl)cc3)c3cnccn3)CC2)cc1 (configuration not stated) | inactive: -11.4%
59 | Cc1ccc([N+](=O)[O-])cc1NC(=S)NC(=O)c1cccnc1 | inactive: -1.68%
60 | Cn1nccc1C(=O)Nc1cccc(C(F)(F)F)c1 | inactive: -0.681%
61 | Cc1ccc(C(=O)N(Cc2cccnc2)Cc2cc3cc(C)ccc3n3nnnc23)cc1 | inactive: 4.29%
62 | FC(F)(F)c1cccc(Cc2noc(CN3C[C@@H]4CCC[C@H]3C4)n2)c1 | inactive: 7.09%
63 | Cc1nc(COc2ccc(C(=O)Nc3ccccc3N3CCOCC3)cc2)cs1 | inactive: 22%
64 | O=C(NC(Cc1ccccc1)C(=O)O)/C(=C/c1ccccc1)NC(=O)c1ccc(Br)o1 (configuration not stated) | inactive: 7.48%
65 | O=C(CCCN1C(=O)CSc2ncccc21)N1CCN(c2cccc(C(F)(F)F)c2)CC1 | inactive: 14%
66 | Cc1cccc(C(=O)N[C@H](C(=O)Nc2nc(C)cs2)C(C)C)c1 | inactive: 4.6%

Row | SMILES | growth rescue (activation)
67 | CC1CN(c2nc(N(C)c3ccccc3)nc(N)c2[N+](=O)[O-])CC(C)O1 (configuration not stated) | inactive: 22.2%
68 | Cc1cccc(NC(=O)CCS(=O)(=O)c2ccccc2)n1 | inactive: 14%
69 | O=c1[nH]ncc(N/N=C\c2ccc(O)cc2O)c1Cl | inactive: -9.1%
70 | COc1ccc(/C=C/C(=O)OCC(=O)NC2CCCC(C)C2C)cc1S(=O)(=O)N1CCOCC1 (configuration not stated) | inactive: 11.2%
71 | Cc1csc(SCC(=O)NCc2ccccc2)n1 | inactive: 17.3%
72 | O=C(O)C(Cc1ccccc1)n1cnnn1 (configuration not stated) | inactive: 7.4%
73 | FC(F)(F)c1cccc(N/N=C/c2ccccc2)c1 | inactive: 35.3%
74 | O=C(O)CCC(=O)N1CN2CN(C(=O)CCC(=O)O)CC([N+](=O)[O-])(C2)C1 | inactive: 6.23%
75 | COc1ccc(C2c3ccc4ccccc4c3Oc3ncn(Cc4ccco4)c(=N)c32)cc1OC (configuration not stated) | inactive: 24.1%
76 | Cc1cccc(N2CCN(S(=O)(=O)c3ccc(Cl)nc3)CC2C)c1 (configuration not stated) | inactive: 7.48%
77 | O=C1/C(=C/c2ccco2)CCC1C1CCCC1 (configuration not stated) | inactive: -0.563%
78 | O=S(=O)(c1ccc2ccccc2c1)N1CCN(C2Cc3ccccc3C2)CC1 | inactive: -4.97%
79 | COc1cccc(-n2c(=O)c3ccccc3n3c(=S)[nH]nc23)c1 | inactive: 11%
80 | O=C1c2ccccc2C(O)(c2ccccc2)N1C1CC1 (configuration not stated) | inactive: 23.2%
81 | O=C(NC1CCOc2ccccc21)C1CCCC1 (configuration not stated) | inactive: 2.71%
82 | COc1ccc(NC(=O)C2(C)CCCN(C(C)C)C2)cc1F (configuration not stated) | inactive: 3.18%
83 | Cc1ccsc1CN(C(=O)COc1ccc(Br)cc1)C1CCS(=O)(=O)C1 (configuration not stated) | inactive: 12.2%
84 | COc1ccc(C(=O)N2CCCC2(C)C(=O)O)cc1C(F)(F)F (configuration not stated) | inactive: 8.44%
85 | CCCc1ccc(C(O)c2ncc(-c3cccc(C)c3)[nH]2)cc1 (configuration not stated) | inactive: 17%
86 | Cc1nn(Cc2ccccc2)c(C)c1CNC(=O)CN=C1NS(=O)(=O)c2ccccc21 | inactive: -5.33%
87 | COC(=O)c1sc(OC)cc1OCc1ccc(C)cc1 | inactive: 0.861%
88 | COc1cc(NC(=O)CCC(=O)OCCCC(F)(F)C(F)(F)F)nc(OC)n1 | inactive: 8.27%

Row | SMILES | growth rescue (activation)
89 | CC(Oc1ccc(Br)cc1)C(=O)NCCCN1CCCC1=O (configuration not stated) | inactive: -2.95%
90 | O=C(c1c(F)cccc1F)N1CCCC(c2nc(-c3cccs3)no2)C1 (configuration not stated) | inactive: 11.9%
91 | O=C(NC(Cc1ccccc1)C(=O)O)/C(=C\c1ccc(Cl)cc1)NC(=O)c1ccccc1 (configuration not stated) | inactive: -9.08%
92 | COc1ccc(NC(=S)NC(=O)c2cc3ccccc3o2)c(OC)c1 | inactive: 16.1%
93 | CC(NC(=O)COC(=O)c1cccc(S(=O)(=O)N2CCCC2)c1)c1ccccc1 (configuration not stated) | inactive: 5.1%
94 | COC(=O)CN(c1ccc(OCc2ccccc2)cc1)S(C)(=O)=O | inactive: 19.3%
95 | CCCc1n[nH]c(=O)c2c1nnn2Cc1ccccc1F | inactive: -11.7%
96 | NS(=O)(=O)c1ccc(CCNC(=S)NC2CCCCC2)cc1 | inactive: 21.3%
97 | N#Cc1ccc(OCC(=O)N/N=C2/CC(c3ccccc3)Oc3ccccc32)cc1 (configuration not stated) | inactive: 3.46%
98 | O=C(COC(=O)/C=C/c1ccc(OC(F)F)cc1)NCc1cccs1 | inactive: 8.98%
99 | COc1cc(NC(=O)Nc2nc(C(N)C3CCCCC3)cs2)cc(OC)c1OC (configuration not stated) | inactive: 12%
100 | COc1ccc(CNC(=O)CN(Cc2ccc(Cl)cc2)C(=O)c2csnn2)cc1 | inactive: -3.36%
101 | CC(=O)N(C(C)=O)N1C(=O)c2cccc3c(N4CCOCC4)ccc(c23)C1=O | inactive: -21.9%
102 | CCn1c(O)c(N=NC(=O)CNc2ccc(C)cc2)c2ccccc21 | inactive: 24.9%
103 | COc1ccc(C2=NO[C@@H]3[C@@H]4C[C@@H]([C@H]5C(=O)N(C)C(=O)[C@@H]45)[C@H]23)cc1 | inactive: 8.96%
104 | Cc1ccc(OCc2ccc(C(=O)O)o2)c([N+](=O)[O-])c1 | inactive: -6.3%
105 | C/C(CC(=O)Nc1ccc(Cl)cc1Cl)=N\NC(=O)c1cnccn1 | inactive: 12.1%
106 | O=C(CSCc1ccccc1)Nc1ccc2c(c1)C(=O)NC2=O | inactive: 14.3%
107 | Cc1nnc(NC(=O)c2cccc(S(=O)(=O)N3CCc4ccccc43)c2)s1 | inactive: 3.27%

Reference: PubChem BioAssay AID1347073 (National Center for Advancing Translational Sciences (NCATS), 2019)
